Experimental data as given in patent publication US12331094B2 (Bayer Aktiengesellschaft, priority 2018, dated 2025).

Molecular target: T1, rat NPR-A (Rattus norvegicus, UniProt P18910)
T1 construct: expressed in transfected cells; host or cells: CHO cell line stably expressing GCaMP6, co-transfected with CNGA2 and rat NPR-A
T1 sequence (P18910 29-1057): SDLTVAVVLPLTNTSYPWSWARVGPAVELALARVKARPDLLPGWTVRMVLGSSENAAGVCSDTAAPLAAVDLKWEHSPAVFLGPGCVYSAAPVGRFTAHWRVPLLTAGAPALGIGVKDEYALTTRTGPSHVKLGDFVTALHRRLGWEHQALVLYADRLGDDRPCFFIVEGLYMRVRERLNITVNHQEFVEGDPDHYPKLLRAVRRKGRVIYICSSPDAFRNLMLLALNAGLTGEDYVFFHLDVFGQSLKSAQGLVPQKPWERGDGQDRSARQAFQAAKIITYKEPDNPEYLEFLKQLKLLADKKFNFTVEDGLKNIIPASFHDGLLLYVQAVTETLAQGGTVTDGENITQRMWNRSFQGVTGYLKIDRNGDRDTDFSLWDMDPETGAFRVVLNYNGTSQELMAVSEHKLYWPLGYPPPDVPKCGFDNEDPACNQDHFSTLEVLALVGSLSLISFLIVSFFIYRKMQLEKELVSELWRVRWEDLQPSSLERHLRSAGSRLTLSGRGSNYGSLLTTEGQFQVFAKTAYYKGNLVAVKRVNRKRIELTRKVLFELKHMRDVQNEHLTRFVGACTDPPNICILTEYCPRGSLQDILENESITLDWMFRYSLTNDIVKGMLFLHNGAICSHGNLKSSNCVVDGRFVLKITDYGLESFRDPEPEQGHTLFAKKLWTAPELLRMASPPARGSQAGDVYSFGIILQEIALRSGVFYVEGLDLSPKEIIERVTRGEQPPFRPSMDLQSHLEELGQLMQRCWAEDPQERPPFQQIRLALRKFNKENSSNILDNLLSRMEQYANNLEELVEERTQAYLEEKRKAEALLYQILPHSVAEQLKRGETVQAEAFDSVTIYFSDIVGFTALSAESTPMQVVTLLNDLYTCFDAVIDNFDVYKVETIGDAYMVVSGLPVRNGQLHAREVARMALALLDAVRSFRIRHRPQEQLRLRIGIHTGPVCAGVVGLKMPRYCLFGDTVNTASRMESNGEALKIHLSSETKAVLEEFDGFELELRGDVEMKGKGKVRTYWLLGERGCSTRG
Assay: Fluorescence-based rat BNP receptor (NPR-A) GCaMP6/CNGA2 CHO reporter cell line
Conditions: tested up to the max. concentration of 460 nM
Description: A luminescence-based rat BNP receptor (NPR-A) cell line was generated as described previously (Wunder et al. (2013), Eur J Pharmacol. 698: 131). Accordingly, a fluorescence-based rat BNP receptor (NPR-A) cell line was generated by co-transfecting a CHO cell line, stably expressing the fluorescent calcium sensor protein GCaMP6, with plasmid constructs encoding CNGA2 (cGMP biosensor) and rat NPR-A.
BNP receptor GCaMP6 cells were cultured for one day on black, clear-bottom 384-well microtiter plates (2500 cells/well). After removal of the cell culture medium reporter cells were loaded for 20 min with Tyrode (130 mM NaCl, 5 mM KCl, 2 mM CaCl2, 20 mM HEPES, 1 mM MgCl2, 4.8 mM NaHCO3 at pH 7.4) containing a black masking dye at 37° C. and 5% CO2. IBMX (0.2 mM) was used to prevent cGMP degradation by endogenous phosphodiesterases.
Fluorescence measurements (3 min, kinetic mode) were directly started upon agonist addition. Receptor ligands were added in Tyrode containing a black masking dye and 0.1% BSA. Measurements were done on a FLIPR Tetra®.

stimulation of the NPR-A cell line: did not significantly stimulate
B1: TPP-5657: empty antibody scaffold, negative control; SEQ ID NO 65 and SEQ ID NO 66 (antibody, listed as Homo sapiens)
heavy: [here about 100 residues without letters]LTGAEYFQHWGQGTLVTVSS[here human IgG1 constant region without letters]
light: QSVLTQPPSVSGAPGQRVTISCTGSSSNIGAGYDVHWYQQLPGTAPKLLIYGNSNRPSGVPDRFSGSKSGTSASLAITGLQAEDEADYYCQSYDSSLSGVVFGGGTKLTVLGQPKAAPSVTLFPPSSEELQANKATLVCLISDFYPGAVTVAWKADSSPVKAGVETTTPSKQSNNKYAASSYLSLTPEQWKSHRSYSCQVTHEGSTVEKTVAPTECS
